# Experimental data reported in the supplement of paper PMC8728848.
# The list shows a part of the results.
# B1: exo-alpha-sialidase (Propionibacterium acnes), Q6A7G1 (protein)
# chain: GSHMSGRAPAPVAATTQPKLVTGDITSTDQSGTNLFFGKKIVRNARGAIMKVDRTWPAAVPAPLPDVRADSSTRMLLGPVVDLAVNEHPEGVFYRIPALATASNGDLLASYDLRPGSAGDAPNPNSIVQRRSRDNGRTWGPQTVIHAGTPGRRKVGYSDPSYLVDPATGRILNFHVKSYDRGFATSEVGTDPDDRHVLHAEVSTSTDNGHTWTHRDITREITSDPTTRTRFVASGQGIALLHGPHAGRLIAQMTVRNSVGQQAQSIYSDDHGITWHAGNPVGRMMDENKVVELSDGTLMLNSRDAARSGRRKVAYSQDGGLTWGPVKLVDDLIDPTNNAQIIRAYPNARAGSAKARILLFTNARNATERVNGTLSVSCDDGRTWVSHQTYMPGEVGYTTAAVQSDGALGVLWERDGIRYSTIPMGWLNSVCPLAPSGRPTSGKPTSGTSLPPTAT
# How the values were obtained:
# Assay in all cases: glycan array binding signal (z-score within array); higher = stronger binding
# Conditions in all cases: glycan notation: IUPAC condensed, linker removed
# Gal(a1-3)GalNAc = target: Gal(a1-3)GalNAc
# Method in brief: (§1)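 Glycan array binding is given as a within-array Z-score, which can be read as non-binding when negative. The arrays, 3228 of them, came from the Consortium for Functional Glycomics database and were retained only where the protein sequence was available. Z-scores were averaged across arrays of the same protein sequence at different concentrations or buffers and across linkers.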
# [1] = target: Gal(a1-3)[Gal(a1-4)]Gal(b1-4)GlcNAc
# Method in brief: as §1
# [2] = target: Gal(a1-4)Gal(b1-3)GlcNAc(b1-2)Man(a1-3)[Gal(a1-4)Gal(b1-3)GlcNAc(b1-2)Man(a1-6)]Man(b1-4)GlcNAc(b1-4)GlcNAc
# Method in brief: as §1
# Gal(a1-4)Gal(b1-4)Glc = target: Gal(a1-4)Gal(b1-4)Glc
# Method in brief: as §1
# Gal(a1-4)Gal(b1-4)GlcNAc = target: Gal(a1-4)Gal(b1-4)GlcNAc
# Method in brief: as §1
# [3] = target: Gal(a1-4)Gal(b1-4)GlcNAc(b1-2)Man(a1-3)[Gal(a1-4)Gal(b1-4)GlcNAc(b1-2)Man(a1-6)]Man(b1-4)GlcNAc(b1-4)GlcNAc
# Method in brief: as §1
# [4] = target: Gal(a1-4)Gal(b1-4)GlcNAc(b1-3)Gal(b1-4)Glc
# Method in brief: as §1
# Gal(a1-4)GlcNAc = target: Gal(a1-4)GlcNAc
# Method in brief: as §1
# Gal(a1-6)Glc = target: Gal(a1-6)Glc
# Method in brief: as §1
# Gal(b1-2)Gal = target: Gal(b1-2)Gal
# Method in brief: as §1
# Gal(b1-3)Gal = target: Gal(b1-3)Gal
# Method in brief: as §1
# Gal(b1-3)Gal(b1-4)GlcNAc = target: Gal(b1-3)Gal(b1-4)GlcNAc
# Method in brief: as §1
# [5] = target: Gal(b1-3)Gal(b1-4)GlcNAc(b1-2)Man(a1-3)[Gal(b1-3)Gal(b1-4)GlcNAc(b1-2)Man(a1-6)]Man(b1-4)GlcNAc(b1-4)GlcNAc
# Method in brief: as §1
# Gal(b1-3)GalNAc = target: Gal(b1-3)GalNAc
# Method in brief: as §1
# [6] = target: Gal(b1-3)GalNAc(a1-3)[Fuc(a1-2)]Gal(b1-4)Glc
# Method in brief: as §1
# [7] = target: Gal(b1-3)GalNAc(a1-3)[Fuc(a1-2)]Gal(b1-4)GlcNAc
# Method in brief: as §1
# [8] = target: Gal(b1-3)GalNAc(b1-3)Gal(a1-4)Gal(b1-4)Glc
# Method in brief: as §1
# [9] = target: Gal(b1-3)GalNAc(b1-4)Gal(b1-4)Glc
# Method in brief: as §1
# [10] = target: Gal(b1-3)GalNAc(b1-4)[Neu5Ac(a2-3)]Gal(b1-4)Glc
# Method in brief: as §1
# Gal(b1-3)GlcNAc = target: Gal(b1-3)GlcNAc
# Method in brief: as §1
# [11] = target: Gal(b1-3)GlcNAc(a1-6)Gal(b1-4)GlcNAc
# Method in brief: as §1
# [12] = target: Gal(b1-3)GlcNAc(b1-2)Man(a1-3)[Gal(b1-3)GlcNAc(b1-2)Man(a1-6)]Man(b1-4)GlcNAc(b1-4)GlcNAc
# Method in brief: as §1
# [13] = target: Gal(b1-3)GlcNAc(b1-2)Man(a1-3)[Gal(b1-3)GlcNAc(b1-2)Man(a1-6)]Man(b1-4)GlcNAc(b1-4)[Fuc(a1-6)]GlcNAc
# Method in brief: as §1
# [14] = target: Gal(b1-3)GlcNAc(b1-3)Gal(b1-3)GlcNAc
# Method in brief: as §1
# [15] = target: Gal(b1-3)GlcNAc(b1-3)Gal(b1-4)Glc
# Method in brief: as §1
# [16] = target: Gal(b1-3)GlcNAc(b1-3)Gal(b1-4)GlcNAc
# Method in brief: as §1
# [17] = target: Gal(b1-3)GlcNAc(b1-3)Gal(b1-4)GlcNAc(b1-6)[Gal(b1-3)GlcNAc(b1-3)]Gal(b1-4)Glc
# Method in brief: as §1
# [18] = target: Gal(b1-3)GlcNAc(b1-3)Gal(b1-4)[Fuc(a1-3)]GlcNAc(b1-6)[Gal(b1-3)GlcNAc(b1-3)]Gal(b1-4)Glc
# Method in brief: as §1
# [19] = target: Gal(b1-3)GlcNAc(b1-3)GalNAc
# Method in brief: as §1
# [20] = target: Gal(b1-3)GlcNAc(b1-6)Gal(b1-4)GlcNAc
# Method in brief: as §1
# [21] = target: Gal(b1-3)[Fuc(a1-4)]GlcNAc
# Method in brief: as §1
# [22] = target: Gal(b1-3)[Fuc(a1-4)]GlcNAc(b1-2)Man(a1-3)[Gal(b1-3)[Fuc(a1-4)]GlcNAc(b1-2)Man(a1-6)]Man(b1-4)GlcNAc(b1-4)GlcNAc
# Method in brief: as §1
# [23] = target: Gal(b1-3)[Fuc(a1-4)]GlcNAc(b1-2)Man(a1-3)[Gal(b1-3)[Fuc(a1-4)]GlcNAc(b1-2)Man(a1-6)]Man(b1-4)GlcNAc(b1-4)[Fuc(a1-6)]GlcNAc
# Method in brief: as §1
# [24] = target: Gal(b1-3)[Fuc(a1-4)]GlcNAc(b1-3)Gal(b1-3)[Fuc(a1-4)]GlcNAc
# Method in brief: as §1
# [25] = target: Gal(b1-3)[Fuc(a1-4)]GlcNAc(b1-3)Gal(b1-4)GlcNAc
# Method in brief: as §1
# [26] = target: Gal(b1-3)[Fuc(a1-4)]GlcNAc(b1-3)Gal(b1-4)[Fuc(a1-3)]GlcNAc
# Method in brief: as §1
# [27] = target: Gal(b1-3)[GlcNAc(b1-6)]GalNAc
# Method in brief: as §1
binder,measurement,setting,value
B1,glycan array binding signal (z-score),Gal(a1-3)GalNAc,-0.32
same,glycan array binding signal (z-score),[1],-0.349
same,glycan array binding signal (z-score),[2],-0.363
same,glycan array binding signal (z-score),Gal(a1-4)Gal(b1-4)Glc,-0.366
same,glycan array binding signal (z-score),Gal(a1-4)Gal(b1-4)GlcNAc,-0.365
same,glycan array binding signal (z-score),[3],-0.361
same,glycan array binding signal (z-score),[4],-0.337
same,glycan array binding signal (z-score),Gal(a1-4)GlcNAc,-0.348
same,glycan array binding signal (z-score),Gal(a1-6)Glc,-0.278
same,glycan array binding signal (z-score),Gal(b1-2)Gal,-0.295
same,glycan array binding signal (z-score),Gal(b1-3)Gal,-0.314
same,glycan array binding signal (z-score),Gal(b1-3)Gal(b1-4)GlcNAc,-0.353
same,glycan array binding signal (z-score),[5],-0.36
same,glycan array binding signal (z-score),Gal(b1-3)GalNAc,-0.298
same,glycan array binding signal (z-score),[6],-0.337
same,glycan array binding signal (z-score),[7],-0.352
same,glycan array binding signal (z-score),[8],-0.324
same,glycan array binding signal (z-score),[9],-0.337
same,glycan array binding signal (z-score),[10],-0.331
same,glycan array binding signal (z-score),Gal(b1-3)GlcNAc,-0.338
same,glycan array binding signal (z-score),[11],-0.353
same,glycan array binding signal (z-score),[12],-0.364
same,glycan array binding signal (z-score),[13],-0.358
same,glycan array binding signal (z-score),[14],-0.354
same,glycan array binding signal (z-score),[15],-0.329
same,glycan array binding signal (z-score),[16],-0.328
same,glycan array binding signal (z-score),[17],-0.36
same,glycan array binding signal (z-score),[18],-0.381
same,glycan array binding signal (z-score),[19],-0.355
same,glycan array binding signal (z-score),[20],-0.367
same,glycan array binding signal (z-score),[21],-0.335
same,glycan array binding signal (z-score),[22],-0.37
same,glycan array binding signal (z-score),[23],-0.363
same,glycan array binding signal (z-score),[24],-0.352
same,glycan array binding signal (z-score),[25],-0.348
same,glycan array binding signal (z-score),[26],-0.357
same,glycan array binding signal (z-score),[27],-0.366
